This sample is rich in variants without activity.

27 variants from the RNAGym collection of RNA variant scans (doi:10.1101/gad.245936.114) can be followed below.

To fix the notation:
B1: tRNA (parent)
chain: CUCUCGGUAGCCAAGUUGGUUUAAGGCGCAAGACUUUAAUUUAUCACUACGAAAUCUUGAGAUCGGGCGUUCGACUCGCCCCCGGGAGAUUUUUUCCUCGAGCAA

Variants of B1 are the subject of the data set. The data set can be described thus: nonsense suppression (GFP-seq) (ratio to wild type); higher = more function; SUP4oc tRNA, yeast GFP reporter sort-seq. In outline: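 Nonsense suppression (GFPSEQ) is the median GFP/RFP ratio of each sorting bin, weighted by the variant's estimated share of cells in that bin and expressed relative to the unmutated parent tRNA. Yeast strains carried genome-integrated variants of an ochre-suppressor tRNA from a library with ~3% random mutations, plus a galactose-driven GFP ochre reporter and RFP, and were grown in raffinose/galactose medium containing 80 mg/L adenine. Cells were sorted into GFP/RFP bins, each bin was Illumina-sequenced (phred ≥30), and variants were kept only with ≥100 reads and ≥30 cells.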
With UUGACGGUACCCAAGUUGUUUUAAGGCGCAAGACUUUAAUUUAUCACUACGAAAUCUUGAGAUCGGGGGUUCGACUCGCCCCCUGGAGAUUUUUUCCUCGAGCAA, the nonsense suppression was not above 0.026.

CUCUCGGUAGCCAAGUAGGUUUAAGGCGCAAGACUUUAAUUUAUCACUACGAAAUCUUGAGAUCGGGCGUUCGACUCGCCCCCCGGAGAUUUUUUCCUCGAGCAA: the nonsense suppression was not above 0.026.

CUCUCGGUAGCCAAGUUGGUUUAAGGCGCAAGACUUUAAUUUAUCACUACGAAAUCAUGAGAUCGGGCGUUCGACUCGCCCCCAGGAGGUUUUUUCCUCGAGCAA: the nonsense suppression is not above 0.026.

CUCUCGGUAGCCAAAUUGGUUUAAGGCGCAAGACUUUAAUUUAUCACUACGAAAUCUUGAGAGCGGGCGUUCGAGUCGCCCCCGGGAGAUUUUUUCCUCGAGCAA: the nonsense suppression was not above 0.026.

Turning to CUCUCGGUAGCCAAGUUGGUUUAAGGGUCAAGACUUUAAUUUAUCACUACGAAAUCUUGAGAUCGGGCGUUCGACUCGCCCCCGGGAGAUUUUUUCCUCGAGCAA, the nonsense suppression was not above 0.026.

On to CUCUCGGUGGCCAAGUUGGUUUAAGGCGCAAGACGUUAAUUUAUCACUACGAAAUCUUGAGAUCGGGCGUUCGACUCGCCCCCGGGAUAUUUUUUCCUCGAGCAA, for which the nonsense suppression was not above 0.026.

On to CUCUCGGUGGCCAAGUUGGUUUAAGGCGCAAGACUUUAAUUUAUCACUACGAAAUCGAGAGAUGGGGCGUUCGACUGGCCCCCGGGAGAUUUUUUCCUCGAGCAA, for which the nonsense suppression was not above 0.026.

With UUCUCGGUAGCCAAGUUGGUUUAAGGCGCAAGACUUUAAUUUAUCACUACGAAAUCUUGAGAUCGGGCGUUCGACCCGCCCCCGGGAGAUUUUUUCCUCGAGCAA, the nonsense suppression is not above 0.026.

Consider CUCUCGGUAGCGAAGUUGGUUUAAGGCGCAAGACUUUAAUUUAUCACUACGAAUUCUUGAGAUCGGGCGUUCGACUCGCCCCCGGGGGAUUUUUUCCUCGAGCAA, for which the nonsense suppression was not above 0.026.

On to CUCUCGGUGGCCAAGUUGGUUUAAGGCGCAAAACUUUAAUUUAUCACUACGAAAUCUGGAGAUCGGGCGUUCGACUCGCCCCCGAGAGAUUUUUUCCUCGAGCAA, for which the nonsense suppression is not above 0.026.

With CUCUCGGUAGCCAAUUUGGUUUAAGGCCCAAGACUUUAAUUUAUCACUACGAAAUCCUGAGAUCGGGCGUGCGACUCGCCCCCGGGAGAUUUUUUCCUCGAGCAA, the nonsense suppression is not above 0.026.

On to CUCUCGGUAUCCAAGUUGGUUUAAGGCGCAUGAUUUUAAUUUAUCACUACGAAAUCUUGAGAUCGGGCGUACGACUCGCCCCCGGGAGAUUUUUUCCUCGAGCAA, for which the nonsense suppression was not above 0.026.

As to CUCGCGGUAGCCAGGUUGGUUUAAGGCGCAAGACUUUAAUUUAUCACUACGAAAUCUUGAGAUCGGGCGUACGACUCGCCCCCGGGAGAUUUUUUCCUCGAGCAA, the nonsense suppression was not above 0.026.

For CUCUCGGUAGCCAAGUUGGUUUAAGACGCAAGACUUUAAUUUAUCACUACGAAAUAUUGAGAUCGGACGUUCGACUCGCCCCCGGGAGAUUUUUUCCUCGAGCAA, the nonsense suppression is not above 0.026.

Take CUCUAGGUAGCCAAGUUGGUUUUAGGCGCAAGACUUUAAUUUAUCACUACGAAAUCUUGUGAUGGGGCGUUCGACUCGCCCCCGGGAGAUUUUUUCCUCGAGCAA: the nonsense suppression is not above 0.026.

Regarding CUCUCGGUAGCCAAGUUGGUUUAAGGCGCAGGACUUUAAUUUAUCACUACGAAAUCUAGAGAUCGGGGGUUCGACUCGCCCCCGGGAGAUUUUUUCCUCGAGCAA, the nonsense suppression was not above 0.026.

Consider CUCUCGGGAGCCAAGUUGGUUUAAGGCGCAAGGCUUUAAUUUAUCACUACGAAAUCUUGAGAUCGGGCGUUCGACUCGCUCCCAGGAGAUUUUUUCCUCGAGCAA, for which the nonsense suppression was not above 0.026.

With CUCUCGGUAGCCAAGUUGGUUUAAGGCGCAAGACUUUAAUUUAUCACUACGAAAUCUUGAGAUCGGGCGUUCGGCUCGCCACCGGGAGAUUUUUUCCUCGAGCAA, the nonsense suppression was not above 0.026.

Consider CUCUCGCUAGCCAAGUCGGUUUAAGGUGCAAGACUUUAAUUUAUCACUACGAAAUCUUGAGAUGGGGCGUUCGACUCGCCCCCGGGAGAUUUUUUCCUCGAGCAA, for which the nonsense suppression was not above 0.026.

With CUCUCGGUAGCCAAGCUGGUUUAAGGCGCAAGGCUUUAAUUUAUCACUACGAAAUCUUGAGAUCGGGCGUUCGACUCGCCCCCGGGAGAUUUUUUCCUCGAGCAA, the nonsense suppression was not above 0.026.

Turning to CUCUCGGUAGCCAAGUCGGUUUAAGCCGCAAGACUUUAAUUUAUCACUACGAAAUCUUGAGAUCGGGCGUUCGACUCGCCCCCGGGAGAUUUUUUCCUCGAGCAA, the nonsense suppression is not above 0.026.

As to CUCUCGGUAGCCAAGUUUGUUUAAGGCGCAAGACUUUAAUUUAUCACUACGAAAUCUUGAGAUCGGGCGUUCGACACGCCCCCGGGAGAUUUUUUCCUCGAGCAA, the nonsense suppression was not above 0.026.

Turning to CUCUCGGUAGCCAAGUUGGUGUAAGGCGCAAGACUUUAAUUUAUCACUACGAAAUCUUGACAUCGGGCGUUGGACUCGCCCCCGGGAGAUUUUUUCCUCGAGCAA, the nonsense suppression is not above 0.026.

CUCUCGGUAGCCAAGUUAGUUUAAGGCGCAAGACUUUAAUUUAUCACUACGAAAUCUUGAGGUAAGGCGUUCUACUCGUCCCCGGGAGAUUUUUUCCUCGAGCAA: the nonsense suppression was not above 0.026.

Regarding CUCUCGGUAGCCAAGUUGGGUUAAGGCGCAAGACUUUAAUUUAUCACUACGAAAUCUUGAAAUCGGGCGUUCGACUCGCCCCCGGGAGAUUUUUUCCUCGAGCAA, the nonsense suppression worked out at 0.635.

Turning to CUCUCGGUAGCCAAGUUGGUUUACGGGGCAAGACUUUAAUUUAUCACUACGAAAUCUUGAGCUCGGGCGUUCGACGCGCCCCCGGGAGAUUUUUUCCUCGAGCAA, the nonsense suppression was not above 0.026.

Consider CUCUCGGUAGCCAAGUAGGUUUAAGUCGCAAGACUUUAAUUUAUCACUACGAAAUCUUGAGAUCGGGCGUUCGCCUCGCCCCCGGGAGAUUUUUUCCUCGAGCAA, for which the nonsense suppression is not above 0.026.
